Test results reported in ChEMBL document CHEMBL4665834 (J Med Chem, 2020).

Experiment: physchem
Conditions: not given

`COc1ccccc1C(C)CNC(=O)c1c(C)c(-c2ccccc2)nc2ccc(Br)cc12` (single isomer, unassigned; (-)) showed a solubility of less than 0.1 µg/mL.

Experiment: Induction of CYP3A4 mRNA expression in human hepatocytes supplemented with fresh medium containing compounds daily for 2 days measured 24 hrs post last dose by qRT-PCR analysis
Conditions: 72 h

For `Cc1c(N2CCCCC2)nc2ccc(Br)cc2c1C(=O)NCC(CCC(=O)O)c1c(F)ccc(F)c1Cl` (single isomer, unassigned; (-)), the NOAEL was 600 nM.

Experiment: Lipophilicity, log D of compound at pH 7.5 by HPLC analysis
Conditions: buffer

Point of comparison: `Cc1c(-c2ccccc2)nc2ccc(Br)cc2c1C(=O)NCCc1ccccn1`, logD 2.7. Against it:
- Cc1c(-c2ccccc2)nc2ccc(Br)cc2c1CNc1ccc(C(=O)O)cc1F — lower, 2.3
- Cc1c(-c2ccccc2)cc2ccc(Br)cc2c1C(=O)Nc1ccc(C(=O)O)cc1F — lower, 2.3
- Cc1c(-c2ccccc2)nc2ccc(Br)cc2c1C(=O)NC(C)Cc1ccccn1 (racemic) — higher, 2.9
- Cc1c(N2CCCCC2)nc2ccc(Br)cc2c1C(=O)NCC(CCC(=O)O)c1c(F)ccc(F)c1Cl (single isomer, unassigned; (+)) — the same, 2.7
- COc1ccccc1C(C)CNC(=O)c1c(C)c(-c2ccccc2)nc2ccc(Br)cc12 (single isomer, unassigned; (+)) — higher, 4.3
- Cc1c(N2CCCCCC2)nc2ccc(Br)cc2c1C(=O)NCC(CCC(=O)O)c1ccccc1Cl (single isomer, unassigned; (+)) — higher, 2.9
- Cc1c(-c2ccccc2)nc2ccc(Br)cc2c1C(=O)NCC(C(=O)O)c1ccccc1Cl (stereo in doubt; 31) — lower, 1.9
- Cc1c(N2CCCCC2)nc2ccc(Br)cc2c1C(=O)NCC(CCC(=O)O)c1ccccc1Cl (stereo in doubt; 48) — within 0.2 log units, 2.6
